{
  "source": "patent CN109575132A",
  "about": "(BEIJING KANGPU MEITE INNOVATION PHARMACEUTICAL TECH CO LTD, dated 2019)",
  "binders": {"B1": {"name": "人源抗补体C3d分子的单链抗体 V H -Linker-V L (ScFv) (scFv)", "scFv": "[about 100 residues not given here]GINPLGDVDDWGQGTLVTVSSAGGGGSGGGGSGGGGSMASYELTQPPSVSVAPGQTARITCSGDALGDKYASWYQQKPGQAPVLVIYEDSKRPSGIPERFSGSNSGNTATLTISGTQAEDEADYYCSSRDGGQHVFGGGTKLTVL", "notes": "Human scFv from a naive phage library, expressed in CHO cells from pEE14.1/VH-Linker-VL and purified (about 26 kD); No tag or signal peptide is described; also called 抗C3d单链抗体; 靶向C3d的单链抗体"}},
  "target": "C3d抗原 (补体C3d分子)",
  "sequence (chain, as listed by the source)": "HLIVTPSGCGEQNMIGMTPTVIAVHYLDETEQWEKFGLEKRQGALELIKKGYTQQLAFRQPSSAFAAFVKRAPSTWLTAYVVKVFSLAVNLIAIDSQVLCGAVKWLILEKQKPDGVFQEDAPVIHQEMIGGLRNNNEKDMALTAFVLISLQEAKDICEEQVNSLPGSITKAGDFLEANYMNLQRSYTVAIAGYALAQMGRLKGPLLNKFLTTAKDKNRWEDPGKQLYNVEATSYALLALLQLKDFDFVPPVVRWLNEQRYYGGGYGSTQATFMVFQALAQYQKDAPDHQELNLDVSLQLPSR",
  "assay": "non-competitive ELISA; C3d coated at 2, 1, 0.5, 0.25 μg/ml, 2-fold dilutions of ScFv, HRP/anti-ScFv secondary, Ka formula",
  "data": [
    {"binder": "B1", "values": [
      {"measurement": "Kd", "result": 0.122, "unit": "µM"}
    ]}
  ]
}
